How the values were obtained:
Human FGFR3-IIIb = biological target: T1, Human FGFR3-IIIb (Homo sapiens, UniProt P22607); assay: SPR analysis (Biacore 3000) of binding affinity
T1 construct: purchased R&D systems 1264-FR-050
T1 sequence (P22607 23-377 isoform P22607-2 limits assumed): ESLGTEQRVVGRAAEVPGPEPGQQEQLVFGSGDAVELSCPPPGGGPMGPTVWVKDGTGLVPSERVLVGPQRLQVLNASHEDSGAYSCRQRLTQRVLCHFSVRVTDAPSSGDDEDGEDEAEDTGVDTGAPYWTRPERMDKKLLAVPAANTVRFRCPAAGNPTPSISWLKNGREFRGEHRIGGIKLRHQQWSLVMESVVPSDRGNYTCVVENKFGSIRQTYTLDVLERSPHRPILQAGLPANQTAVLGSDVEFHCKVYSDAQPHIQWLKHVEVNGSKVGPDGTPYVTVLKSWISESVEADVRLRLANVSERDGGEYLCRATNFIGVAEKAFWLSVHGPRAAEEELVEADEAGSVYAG
Procedure: (§1) The binding affinity (KD value) of the anti-FGFR3 antibody was measured using a Biacore 3000. Human (FGFR3-IIIb and -IIIc, R&D systems, 1264-FR-050), mouse (R&D systems, 710-MF-050) and cynomolgus FGFR3 proteins (Sino Biological, 90313-C02H) were coated with an amine coupling kit (GE Healthcare Life Sciences, BR100050, Uppsala, Sweden).

Human FGFR3-IIIc = biological target: T2, Human FGFR3-IIIc (Homo sapiens, UniProt P22607); assay: SPR analysis (Biacore 3000) of binding affinity
T2 construct: purchased R&D systems 1264-FR-050
T2 sequence (P22607 23-375 limits assumed): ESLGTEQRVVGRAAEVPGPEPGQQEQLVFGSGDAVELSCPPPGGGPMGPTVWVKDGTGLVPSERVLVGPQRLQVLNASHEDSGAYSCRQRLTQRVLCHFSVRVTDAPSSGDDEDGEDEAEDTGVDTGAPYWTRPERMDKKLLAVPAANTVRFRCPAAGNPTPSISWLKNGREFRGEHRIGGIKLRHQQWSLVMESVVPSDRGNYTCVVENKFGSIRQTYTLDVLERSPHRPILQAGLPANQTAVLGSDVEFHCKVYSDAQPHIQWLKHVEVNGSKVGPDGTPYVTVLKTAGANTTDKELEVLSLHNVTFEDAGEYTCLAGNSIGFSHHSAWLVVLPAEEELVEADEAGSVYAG
Procedure: as §1

cynomolgus FGFR3 [1] = assay: SPR analysis (Biacore 3000) of binding affinity; settings: FGFR3, Monkey
Procedure: as §1

mouse FGFR3 = biological target: T3, mouse FGFR3 (Mus musculus, UniProt Q61851); assay: SPR analysis (Biacore 3000) of binding affinity; settings: N.B means antibody does not bind to FGFR3
T3 construct: purchased R&D systems 710-MF-050
T3 sequence (Q61851 21-369 limits assumed): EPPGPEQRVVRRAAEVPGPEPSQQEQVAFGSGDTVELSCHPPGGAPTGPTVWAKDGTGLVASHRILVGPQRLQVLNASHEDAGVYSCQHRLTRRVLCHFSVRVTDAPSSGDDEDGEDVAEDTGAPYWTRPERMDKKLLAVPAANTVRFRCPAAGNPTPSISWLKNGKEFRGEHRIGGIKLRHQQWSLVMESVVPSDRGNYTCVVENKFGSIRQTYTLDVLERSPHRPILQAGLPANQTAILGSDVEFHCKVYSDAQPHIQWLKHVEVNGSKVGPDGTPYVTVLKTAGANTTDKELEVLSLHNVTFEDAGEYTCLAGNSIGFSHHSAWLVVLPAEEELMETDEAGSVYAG
Procedure: as §1

cynomolgus FGFR3 [2] = assay: Affinity ELISA analysis of antibodies; format: binding; settings: cynomolgus FGFR3, FIG. 2
Procedure: (§2) 1) One microgram per milliliter of each human FGFR3 (R&D systems, 1264-FR-050), cynomolgus FGFR3 (Sino Biological, 90313-C02H) protein or mouse FGFR3 (R&D systems, 710-MF-050) was coated on 96-well plates at 4° C. for over-night, respectively. The plates were blocked in 3% skim milk containing anti-FGFR3-antibodies and incubated for 1 h at room temperature. After washing with PBST (0.1%), the anti-human Fab antibody conjugated horseradish peroxidase (HRP) (Thermo Scientific, 31482, Waltham, MA, USA) was added at a ratio of 1:3000. Following the wash, the plate was treated with TMB solution (Thermo Scientific, N301, Waltham, MA, USA) as an HRP substrate, and the reaction was stopped with STOP solution (Cell Signaling Technology, #7002, Danvers, MA, USA).
(§3) The absorbance for each well was detected at 450 nm wavelength.

human FGFR3 = biological target: T4, human FGFR3 (Homo sapiens, UniProt P22607); assay: Affinity ELISA analysis of antibodies; format: binding; settings: human FGFR3, FIG. 2
T4 construct: purchased R&D systems 1264-FR-050
T4 sequence (P22607 23-377 isoform P22607-2 limits assumed): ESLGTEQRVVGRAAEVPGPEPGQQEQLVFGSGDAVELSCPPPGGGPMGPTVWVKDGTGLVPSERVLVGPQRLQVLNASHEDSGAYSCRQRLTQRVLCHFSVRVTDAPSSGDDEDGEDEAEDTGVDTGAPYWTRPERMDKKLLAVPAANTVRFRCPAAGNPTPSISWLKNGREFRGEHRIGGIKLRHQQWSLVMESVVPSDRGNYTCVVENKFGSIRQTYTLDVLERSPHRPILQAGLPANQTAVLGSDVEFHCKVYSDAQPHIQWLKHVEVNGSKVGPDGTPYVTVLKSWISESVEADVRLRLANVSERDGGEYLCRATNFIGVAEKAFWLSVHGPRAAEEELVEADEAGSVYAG
Procedure: as §2, §3

[3] = test system: AMB-BT-0050T cells (positive FGFR3 expression); assay: Cell binding analysis by flow cytometry; format: cell-based, human
Procedure: 1) The cell surface binding efficiency of anti-FGFR3 antibodies were analyzed using flow cytometry. About 3.0×10^5 to 5.0×10^5 FGFR3-overexpressing or FGFR3 non-expression cells were incubated with anti-FGFR3 antibodies at 4° C. for 1 h. After washing twice with Flow Cytometry Staining Buffer, the cells were stained with the goat anti-human IgG cross-adsorbed secondary antibody conjugated with Alexa Fluor 488 (Invitrogen, A-11013, Carlsbad, CA, USA) diluted 1:200 in staining buffer at 4° C. for 30 min. Mean fluorescence intensity was analyzed by flow cytometry.
The results of this analysis are shown in FIGS. 5 and 6.1, wherein AMB-BT-0050T is a cell with positive FGFR3 expression, while AMB-BT-0013T is a cell with negative FGFR3 expression. AMB-BT-0050T, AMB-BT-0013T is sampled from patients suffering brain cancer (glioblastoma).

Ka (Human FGFR3-IIIb): 1.76E+6 | Ka (Human FGFR3-IIIc): 1.67E+6 | Ka (cynomolgus FGFR3 [1]): 1.56E+6 | KD (mouse FGFR3): N.B | Ka (mouse FGFR3): N.B | Kd (mouse FGFR3): N.B | specificity to FGFR3 (human FGFR3): high specificity
B1: A9: anti-FGFR3 antibody, heavy chain SEQ ID NO: 12, light chain SEQ ID NO: 14 (antibody)
heavy: EVQLLESGGGLVQPGGSLRLSCAASGFTFSSYDMSWVRQAPGKGLEWVSGIYSGDGSIYYADSVKGRFTISRDNSKNTLYLQMNSLRAEDTAVYYCAKDGPMNEESRFDYWGQGTLVTVSS[human IgG1 constant region not written out]
light: QSVLTQPPSASGTPGQRVTISCSGSSSNIGNNYVSWYQQLPGTAPKLLIYADSKRPSGVPDRFSGSKSGTSASLAISGLRSEDEADYYCASWDYSLSGYVFGGGTKLTVLGQPKAAPSVTLFPPSSEELQANKATLVCLISDFYPGAVTVAWKADSSPVKAGVETTTPSKQSNNKYAASSYLSLTPEQWKSHRSYSCQVTHEGSTVEKTVAPTEC
specificity to FGFR3 (cynomolgus FGFR3 [2]): high specificity | binding affinity to FGFR3 positive cells versus FGFR3 negative cells ([3]; AMB-BT-0050T versus AMB-BT-0013T, FIG. 5): significantly higher binding affinity to the FGFR3 positive cells than to FGFR3 negative cells | binding to AMB-BT-0050T cells ([3]; FIG. 6.1): bind to AMB-BT-0050T cells
